Here are results for 23 molecules from patent US11618753B2 (priority 2018, dated 2023).

The experiment deals with MLKL phosphorylation, HT29-L23 human colorectal adenocarcinoma cells. Kind of experiment: cells. The note with it: read-out: pMLKL HCS Cell Assay (IC50, uM).
As usually defined, the IC50 is the concentration that inhibits the measured activity by half. Regarding `CCc1ccc(-c2cc(C(F)(F)F)c3c(N)ncnn23)cc1C(=O)N[C@@H]1CN(C(=O)C(C)(C)O)C[C@@H]1F` [Example 980, 5-[4-amino-5-(trifluoromethyl)pyrrolo[2,1-f][1,2,4]triazin-7-yl]-2-ethyl-N-[(3R,4S)-4-fluoro-1-(2-hydroxy-2-methylpropanoyl)pyrrolidin-3-yl]benzamide], the IC50 was 0.033 µM.

For the molecule `Cc1ncc(-c2cc(C(F)(F)F)c3c(N)ncnn23)cc1C(=O)N1CCCC(C(O)c2ccc(F)cc2)C1` (single isomer, unassigned) [Example 1728, (5-(4-amino-5-(trifluoromethyl)pyrrolo[2,1-f][1,2,4]triazin-7-yl)-2-methylpyridin-3-yl)(3-((4-fluorophenyl)(hydroxy)methyl)piperidin-1-yl)methanone], the IC50 was 0.025 µM.

Consider `Cc1c(F)cc(-c2cc(C(F)(F)F)c3c(N)ncnn23)cc1C(=O)N[C@@H]1CN(C(=O)c2cccnc2)C[C@@H]1F` [Example 1322, 5-[4-amino-5-(trifluoromethyl)pyrrolo-[2,1-f][1,2,4]triazin-7-yl]-3-fluoro-N-[(3R,4S)-4-fluoro-1-(pyridine-3-carbonyl)pyrrolidin-3-yl]-2-methyl-benzamide], for which the IC50 turned out to be 0.023 µM. `COc1ncc(-c2cc(CN3CCCCN3)c3c(N)ncnn23)cc1C(=O)N[C@@H]1CN(C(=O)C2CC(F)(F)C2)C[C@@H]1F` [Example 1716, 5-(4-amino-5-((tetrahydropyridazin-1(2H)-yl)methyl)pyrrolo[2,1-f][1,2,4]triazin-7-yl)-N-((3R,4S)-1-(3,3-difluorocyclobutane-1-carbonyl)-4-fluoropyrrolidin-3-yl)-2-methoxynicotinamide]: the half-maximal inhibitory concentration (IC50) stood at 0.014 µM. For `COc1ncc(-c2cc(C(F)(F)F)c3c(N)ncnn23)cc1C(=O)N[C@@H]1CN(C(C)c2ccc(F)cc2F)C[C@@H]1F` (stereo partly drawn) [Example 436, 5-[4-amino-5-(trifluoromethyl)pyrrolo[2,1-f][1,2,4]triazin-7-yl]-N-[(3R,4S)-1-[1-(2,4-difluorophenyl)ethyl]-4-fluoropyrrolidin-3-yl]-2-methoxypyridine-3-carboxamide], the IC50 came to 0.0085 µM. `COc1ncc(-c2cc(C(F)(F)F)c3c(N)ncnn23)cc1C(=O)N1CCC[C@@H](Cc2cccc(F)c2)C1` [Example 133, 7-{5-[(3S)-3-[(3-fluorophenyl)methyl]piperidine-1-carbonyl]-6-methoxypyridin-3-yl}-5-(trifluoromethyl)pyrrolo[2,1-f][1,2,4]triazin-4-amine]: the IC50 worked out at 0.016 µM. The value for `COc1ncc(-c2cc(C(F)(F)F)c3c(N)ncnn23)cc1C(=O)N[C@@H]1CN(C(=O)C(C)(C)CNC(=O)OC(C)(C)C)C[C@@H]1F` [Example 1679, tert-butyl (3-((3R,4S)-3-(5-(4-amino-5-(trifluoromethyl)pyrrolo[2,1-f][1,2,4]triazin-7-yl)-2-methoxynicotinamido)-4-fluoropyrrolidin-1-yl)-2,2-dimethyl-3-oxopropyl)carbamate] was 0.156 µM; that for `COc1ncc(-c2cc(CN3CCC(F)(F)CC3)c3c(N)ncnn23)cc1C(=O)N[C@@H]1CN(C(=O)c2cccc(F)c2)C[C@@H]1F` [Example 1239, 5-{4-amino-5-[(4,4-difluoropiperidin-1-yl)methyl]pyrrolo[2,1-f][1,2,4]triazin-7-yl}-N-[(3R,4S)-4-fluoro-1-(3-fluorobenzoyl)pyrrolidin-3-yl]-2-methoxypyridine-3-carboxamide] was 0.0011 µM; that for `Nc1ncnn2c(-c3cncc(C(=O)NCC[C@H](O)c4ccc(Cl)cc4)c3)cc(C(F)(F)F)c12` [Example 277, 5-[4-amino-5-(trifluoromethyl)pyrrolo[2,1-f][1,2,4]triazin-7-yl]-N-[(3S)-3-(4-chlorophenyl)-3-hydroxypropyl]pyridine-3-carboxamide] was 0.025 µM.

For `Nc1ncnn2c(-c3ccc(Cl)c(C(=O)N[C@@H]4CN(C(=O)c5ccncc5)C[C@@H]4F)c3)cc(C(F)(F)F)c12` [Example 950, 5-[4-amino-5-(trifluoromethyl)pyrrolo[2,1-f][1,2,4]triazin-7-yl]-2-chloro-N-[(3R,4S)-4-fluoro-1-(pyridine-4-carbonyl)pyrrolidin-3-yl]benzamide], the concentration for half-maximal inhibition (IC50) was determined as 0.069 µM.

As to `Cc1ccc(-c2cc(C(F)(F)F)c3c(N)ncnn23)cc1C(=O)N[C@@H]1CN(C(=O)c2c(F)cncc2F)C[C@@H]1F` [Example 1005, 5-[4-amino-5-(trifluoromethyl)pyrrolo[2,1-f][1,2,4]triazin-7-yl]-N-[(3R,4S)-1-(3,5-difluoropyridine-4-carbonyl)-4-fluoropyrrolidin-3-yl]-2-methylbenzamide], the IC50 is 0.0029 µM. On to `CC(C)(F)C(=O)N1C[C@H](F)[C@H](NC(=O)c2cc(-c3cc(CN4CC(F)(F)C4)c4c(N)ncnn34)c(F)cc2Cl)C1` [Example 1306, 5-{4-amino-5-[(3,3-difluoroazetidin-1-yl)methyl]pyrrolo[2,1-f][1,2,4]-triazin-7-yl}-2-chloro-4-fluoro-N-[(3R,4S)-4-fluoro-1-(2-fluoro-2-methylpropanoyl)pyrrolidin-3-yl]-benzamide], for which the IC50 was 0.0028 µM. In the case of `CCc1c(F)cc(-c2cc(C(F)(F)F)c3c(N)ncnn23)cc1C(=O)N[C@@H]1CN(C(=O)C(C)(C)F)C[C@@H]1F` [Example 659, 5-[4-amino-5-(trifluoromethyl)pyrrolo[2,1-f][1,2,4]triazin-7-yl]-2-ethyl-3-fluoro-N-[(3R,4S)-4-fluoro-1-(2-fluoro-2-methylpropanoyl)pyrrolidin-3-yl]benzamide], the IC50 is 0.018 µM. The value for `Nc1ncnn2c(-c3ccc(Cl)c(C(=O)N[C@@H]4CN(C(=O)C5CC(F)C5)C[C@@H]4F)c3)cc(CN3CCC(F)(F)CC3)c12` (stereo partly drawn) [Example 1142, 5-{4-amino-5-[(4,4-difluoropiperidin-1-yl)methyl]pyrrolo[2,1-f][1,2,4]triazin-7-yl}-2-chloro-N-[(3R,4S)-4-fluoro-1-(3-fluorocyclobutanecarbonyl)pyrrolidin-3-yl]benzamide] was 0.00058 µM. `[2H]C([2H])([2H])Oc1ncc(-c2cc(CN3CC(F)(F)C3)c3c(N)ncnn23)cc1C(=O)N[C@@H]1CN(C(=O)c2ccc(F)cc2)C[C@@H]1F` [Example 1275, 5-{4-amino-5-[(3,3-difluoroazetidin-1-yl)methyl]pyrrolo[2,1-f][1,2,4]triazin-7-yl}-N-[(3R,4S)-4-fluoro-1-(4-fluorobenzoyl)pyrrolidin-3-yl]-2-(methoxy-d3)nicotinamide]: the IC50 turned out to be 0.00098 µM. `COc1ncc(-c2cc(CN3CCC(F)(F)CC3)c3c(N)ncnn23)cc1C(=O)N[C@@H]1CN(C(=O)C2(F)CC2)C[C@@H]1F` [Example 1245, 5-{4-amino-5-[(4,4-difluoropiperidin-1-yl)methyl]pyrrolo[2,1-f][1,2,4]triazin-7-yl}-N-[(3R,4S)-4-fluoro-1-(1-fluorocyclopropanecarbonyl)pyrrolidin-3-yl]-2-methoxypyridine-3-carboxamide]: the concentration for half-maximal inhibition (IC50) is 0.00075 µM. `Cc1cc(F)c(-c2cc(C(F)(F)F)c3c(N)ncnn23)cc1C(=O)N[C@@H]1CN(C(=O)C2(F)CCC2)C[C@@H]1F` [Example 805, 5-[4-amino-5-(trifluoromethyl)pyrrolo[2,1-f][1,2,4]triazin-7-yl]-4-fluoro-N-[(3R,4S)-4-fluoro-1-(1-fluorocyclobutanecarbonyl)pyrrolidin-3-yl]-2-methylbenzamide]: the IC50 came out at 0.0024 µM. With `Cc1nc(C)c(-c2cc(C(F)(F)F)c3c(N)ncnn23)cc1C(=O)N[C@@H]1CN(C(=O)CC(C)C)C[C@@H]1F` [Example 1195, 5-[4-amino-5-(trifluoromethyl)pyrrolo[2,1-f][1,2,4]triazin-7-yl]-N-[(3R,4S)-4-fluoro-1-(3-methylbutanoyl)pyrrolidin-3-yl]-2,6-dimethylpyridine-3-carboxamide], the concentration for half-maximal inhibition (IC50) turned out to be 0.041 µM. Regarding `Cc1c(F)cc(-c2cc(C(F)(F)F)c3c(N)ncnn23)cc1C(=O)N[C@@H]1CN(C(=O)CC(O)(C(F)(F)F)C(F)(F)F)C[C@@H]1F` [Example 562, 5-(4-amino-5-(trifluoromethyl)pyrrolo[2,1-f][1,2,4]triazin-7-yl)-3-fluoro-N-((3R,4S)-4-fluoro-1-(4,4,4-trifluoro-3-hydroxy-3-(trifluoromethyl)butanoyl)pyrrolidin-3-yl)-2-methylbenzamide], the IC50 came to 0.001 µM.

For `COc1ncc(-c2cc(CN3CCC(F)(F)CC3)c3c(N)ncnn23)cc1C(=O)N[C@@H]1CN(C(=O)c2cc(C)ncc2F)C[C@@H]1F` [Example 1259, 5-{4-amino-5-[(4,4-difluoropiperidin-1-yl)methyl]pyrrolo[2,1-f][1,2,4]triazin-7-yl}-N-[(3R,4S)-4-fluoro-1-(5-fluoro-2-methylpyridine-4-carbonyl)pyrrolidin-3-yl]-2-methoxypyridine-3-carboxamide], the IC50 came out at 0.0016 µM.

`[2H]C([2H])([2H])Oc1ncc(-c2cc(CN3CC(F)(F)C3)c3c(N)ncnn23)cc1C(=O)N[C@@H]1CN(S(C)(=O)=O)C[C@@H]1F` [Example 1294, 5-{4-amino-5-[(3,3-difluoroazetidin-1-yl)methyl]pyrrolo[2,1-f][1,2,4]triazin-7-yl}-N-[(3R,4S)-4-fluoro-1-methanesulfonylpyrrolidin-3-yl]-2-(methoxy-d3)nicotinamide]: the IC50 was determined as 0.024 µM.

On to `Cc1nc(C)c(-c2cc(C(F)(F)F)c3c(N)ncnn23)cc1C(=O)N[C@@H]1CN(C(=O)c2ccc(F)cc2F)C[C@@H]1F` [Example 1184, 5-[4-amino-5-(trifluoromethyl)pyrrolo[2,1-f][1,2,4]triazin-7-yl]-N-[(3R,4S)-1-(2,4-difluorobenzoyl)-4-fluoropyrrolidin-3-yl]-2,6-dimethylpyridine-3-carboxamide], for which the half-inhibitory concentration (IC50) was 0.023 µM. As to `COc1ncc(-c2cc(C(F)(F)F)c3c(NC(C)=O)ncnn23)cc1C(=O)N[C@@H]1CN(C(=O)[C@@](C)(O)C(F)(F)F)C[C@@H]1F` [Example 1341, 5-[4-acetamido-5-(trifluoromethyl)pyrrolo[2,1-f][1,2,4]triazin-7-yl]-N-[(3R,4S)-4-fluoro-1-[(2R)-3,3,3-trifluoro-2-hydroxy-2-methylpropanoyl]pyrrolidin-3-yl]-2-methoxypyridine-3-carboxamide], the IC50 came out at 0.0041 µM.
